# According to PubChem BioAssay (Tox21):
# Inconclusive results, whose numbers are uncertain, are shown with a selection of clear calls. For some assays here: Potencies beside an inconclusive call are fits to weak or partial responses and may not hold up. Activity calls are given as the source filed them. Unless noted, the call rests on the fitted dose curve.
# How the values were obtained:
# [1] = molecular target: Peroxisome proliferator-activated receptor gamma (Homo sapiens) (UniProt P37231); test: qHTS assay to identify small molecule antagonists of the peroxisome proliferator-activated receptor gamma (PPARg) signaling pathway (AID 743191); conditions: HEK293H PPARg-UAS-bla, beta-lactamase ratio, antagonist, 17 h; ratio activity, negative = inhibition: at 62.6 µM (top of the series) unless noted; further: nearly all actives have a fitted effect of over 30% in size; further: potency means the concentration at half of the fitted maximal effect; on ratio activity, negative = inhibition: on the % scale 0 is the no-effect control and ±100 the full control effect
# Sequence of UniProt P37231 (P37231 whole entry, looked up): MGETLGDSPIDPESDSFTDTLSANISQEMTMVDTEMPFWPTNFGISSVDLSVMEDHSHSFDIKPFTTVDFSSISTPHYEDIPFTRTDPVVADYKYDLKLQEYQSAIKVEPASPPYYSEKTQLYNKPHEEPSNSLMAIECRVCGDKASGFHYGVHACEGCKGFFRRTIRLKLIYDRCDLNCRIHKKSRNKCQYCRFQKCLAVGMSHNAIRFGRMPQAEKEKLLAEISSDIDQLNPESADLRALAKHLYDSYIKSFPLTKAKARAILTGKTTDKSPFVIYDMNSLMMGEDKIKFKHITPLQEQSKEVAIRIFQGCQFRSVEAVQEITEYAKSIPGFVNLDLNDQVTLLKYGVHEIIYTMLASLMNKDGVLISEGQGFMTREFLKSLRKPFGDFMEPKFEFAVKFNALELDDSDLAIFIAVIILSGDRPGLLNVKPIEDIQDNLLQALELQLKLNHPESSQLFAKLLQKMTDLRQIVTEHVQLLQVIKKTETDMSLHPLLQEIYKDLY
# Summary of the method: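 GeneBLAzer PPARg UAS-bla HEK293H cells carrying a UAS-driven beta-lactamase reporter were plated at 3000 cells/well, preincubated 5 h at 37C, then given compound for 17 h at 37C; LiveBLAzer B/G FRET substrate was read after 1 h at room temperature.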
# [2] = qHTS assay for small molecule agonists of the antioxidant response element (ARE) signaling pathway (AID 743202; active means well fitted activation curve with a large enough effect in the signal ratio in the repeat runs, not every such curve was filed as active; inconclusive means weak or mixed curves, or effect the other way; inactive means no such curve, though single readings can be large or run the other way; the % refers to the signal ratio; further: potency means the concentration at half of the fitted maximal effect); conditions: HepG2 ARE-bla reporter, beta-lactamase FRET, 16 h; activation: at 73.3 µM (top of the series) unless noted
# Summary of the method: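 Following a 16 h, 37 C exposure of reporter HepG2 cells (ARE-driven beta-lactamase, 2,000 cells/well) to compounds, FRET substrate was applied for 2 h at room temperature and fluorescence intensity recorded.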
# [3] = qHTS assay for small molecule activators of the heat shock response signaling pathway - cell viability counter screen (AID 743209; active means well fitted curve in the direction sought with a large enough effect in the repeat runs; inconclusive means weak or mixed curves; inactive means no such curve, though single readings can be large; an effect the other way counts as inactive or inconclusive; further: nearly all actives have a fitted effect of over 50% in size; further: potency means the concentration at half of the fitted maximal effect); conditions: HSE-bla HeLa viability, CellTiter-Glo luminescence, 5 h; activity change, negative = cytotoxicity: at 62.6 µM (top of the series) unless noted
# Summary of the method: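 To flag cytotoxic compounds, HSE-bla HeLa cells plated at 1500 cells/well were dosed for 5 h at 37 C, followed by the reporter FRET read and then CellTiter-Glo, with luminescence recorded 30 min after reagent addition.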
# [4] = molecular target: Vitamin D3 receptor (Homo sapiens) (UniProt P11473); test: qHTS assay to identify small molecule antagonists of the vitamin D receptor (VDR) signaling pathway (AID 743223; active means well fitted inhibition curve with a large enough effect in the signal ratio in the repeat runs, not every such curve was filed as active; inconclusive means weak or mixed curves, or effect the other way; inactive means no such curve, though single readings can be large or run the other way; the % refers to the signal ratio; further: potency means the concentration at half of the fitted maximal effect; on activity change, negative = inhibition: on the % scale 0 is the no-effect control and ±100 the full control effect); conditions: VDR-UAS-bla HEK293T, beta-lactamase FRET ratio, 16 h; activity change, negative = inhibition: at 61 µM (top of the series) unless noted
# Sequence of UniProt P11473 (P11473 whole entry, looked up): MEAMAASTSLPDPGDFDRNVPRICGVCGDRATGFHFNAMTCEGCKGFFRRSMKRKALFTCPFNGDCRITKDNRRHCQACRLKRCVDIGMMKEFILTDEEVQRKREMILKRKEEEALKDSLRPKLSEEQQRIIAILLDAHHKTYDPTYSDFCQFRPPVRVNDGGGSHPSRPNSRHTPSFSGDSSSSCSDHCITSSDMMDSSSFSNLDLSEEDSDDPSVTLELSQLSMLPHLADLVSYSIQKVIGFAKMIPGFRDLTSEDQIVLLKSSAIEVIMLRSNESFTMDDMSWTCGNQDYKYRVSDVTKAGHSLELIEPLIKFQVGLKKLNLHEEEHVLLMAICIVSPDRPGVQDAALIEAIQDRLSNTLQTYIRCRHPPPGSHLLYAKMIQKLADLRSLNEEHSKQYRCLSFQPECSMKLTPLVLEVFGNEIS
# Summary of the method: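 Beta-lactamase activity in VDR-bla cells is measured by FRET substrate fluorescence (2 h, room temperature) after cells spend 16 h at 37C with test compound and 3 nM final 1alpha,25-dihydroxyvitamin D3.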
# [5] = qHTS assay to identify small molecule agonists of the vitamin D receptor (VDR) signaling pathway - cell viability counter screen (AID 743224; active means well fitted curve in the direction sought with a large enough effect in the repeat runs; inconclusive means weak or mixed curves; inactive means no such curve, though single readings can be large; an effect the other way counts as inactive or inconclusive; further: nearly all actives have a fitted effect of over 50% in size; further: potency means the concentration at half of the fitted maximal effect)
# Summary of the method: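 Counter screen for cytotoxicity: VDR-bla cells at 2,000 cells/well, 16 h compound exposure, then CellTiter-Glo luminescence after the beta-lactamase measurement.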
# [6] = qHTS assay to identify small molecule agonists of the NFkB signaling pathway - cell viability counter screen (AID 1159515); further: nearly all actives have a fitted effect of over 55% in size; further: potency means the concentration at half of the fitted maximal effect
# Summary of the method: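 Counter screen run alongside the NFkB-bla agonist assay: ME-180 reporter cells exposed to compounds for 5 hr, then lysed with CellTiter-Glo in the same wells. Luminescence, read after 30 min, reflects viable cells.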
# [7] = qHTS assay for small molecule activators of the heat shock response signaling pathway (AID 743210; active means well fitted activation curve with a large enough effect in the signal ratio in the repeat runs, with a control signal flat, not every such curve was filed as active; inconclusive means weak or mixed curves; the % refers to the signal ratio; further: potency means the concentration at half of the fitted maximal effect); conditions: HeLa HSE-bla reporter, beta-lactamase ratio, 5 h; activation: at 62.6 µM (top of the series)
# Summary of the method: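 Heat shock element–beta-lactamase HeLa reporter cells; qHTS with compounds for 5 h at 37 C; detection by FRET substrate fluorescence after 2.5 h at RT.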
# [8] = molecular target: Peroxisome proliferator-activated receptor delta (Homo sapiens) (UniProt Q03181); test: qHTS assay to identify small molecule agonists of the peroxisome proliferator-activated receptor delta (PPARd) signaling pathway (AID 743212); conditions: HEK293H PPARd-UAS-bla, beta-lactamase FRET ratio, 17 h; activation: at 62.6 µM (top of the series) unless noted; further: potency means the concentration at half of the fitted maximal effect
# Sequence of UniProt Q03181 (Q03181 whole entry, looked up): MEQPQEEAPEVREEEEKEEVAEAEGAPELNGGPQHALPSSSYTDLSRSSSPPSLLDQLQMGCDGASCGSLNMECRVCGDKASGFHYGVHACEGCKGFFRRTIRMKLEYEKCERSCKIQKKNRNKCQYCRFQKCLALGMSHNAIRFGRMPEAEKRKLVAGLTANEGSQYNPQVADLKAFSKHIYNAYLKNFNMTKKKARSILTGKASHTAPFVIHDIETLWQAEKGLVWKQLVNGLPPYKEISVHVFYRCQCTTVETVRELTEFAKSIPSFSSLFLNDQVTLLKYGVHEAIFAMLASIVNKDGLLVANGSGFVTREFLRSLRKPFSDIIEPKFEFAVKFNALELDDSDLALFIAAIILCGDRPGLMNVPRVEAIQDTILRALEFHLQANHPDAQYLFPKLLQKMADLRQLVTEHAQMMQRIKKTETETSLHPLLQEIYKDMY
# Summary of the method: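 Beta-lactamase reporter read by fluorescence (LiveBLAzer B/G FRET, 2 h, room temperature). Test agents, in DMSO, incubated at 37 C with PPARd-bla HEK293H cells.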
# [9] = qHTS assay to identify small molecule antagonists of the peroxisome proliferator-activated receptor delta (PPARd) signaling pathway - cell viability counter screen (AID 743213; active means well fitted curve in the direction sought with a large enough effect in the repeat runs; inconclusive means weak or mixed curves; inactive means no such curve, though single readings can be large; an effect the other way counts as inactive or inconclusive; further: nearly all actives have a fitted effect of over 50% in size; further: potency means the concentration at half of the fitted maximal effect); conditions: PPARd-bla HEK293H viability, CellTiter-Glo luminescence, 17 h; viability change, negative = cytotoxic: at 62 µM (top of the series) unless noted
# Summary of the method: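 PPARd-bla HEK293H cells (3000/well) got compound plus 300 nM L165041 agonist for 17 h at 37 C. Viability in the same wells came from CellTiter-Glo luminescence after 30 min at room temperature.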
# [10] = molecular target: Peroxisome proliferator-activated receptor delta (Homo sapiens) (UniProt Q03181); test: qHTS assay to identify small molecule antagonists of the peroxisome proliferator-activated receptor delta (PPARd) signaling pathway (AID 743215; active means well fitted inhibition curve with a large enough effect in the signal ratio in the repeat runs, not every such curve was filed as active; inconclusive means weak or mixed curves, or effect the other way; inactive means no such curve, though single readings can be large or run the other way; the % refers to the signal ratio;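 further: cells stimulated with agonist L165041 at 300 nM final during compound exposure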; further: potency means the concentration at half of the fitted maximal effect); conditions: HEK293H PPARd-UAS-bla, beta-lactamase FRET ratio, antagonist, 17 h; ratio activity, negative = inhibition: at 62 µM (top of the series) unless noted
# Summary of the method: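 Screen format: qHTS, antagonist mode. HEK293H PPARd-bla cells received compound and 300 nM L165041 (final), 17 h, 37 C. Beta-lactamase detected via FRET substrate fluorescence, 2 h, room temperature.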
# [11] = qHTS assay to identify small molecule agonists of the farnesoid-X-receptor (FXR) signaling pathway - cell viability counter screen (AID 743218; active means well fitted curve in the direction sought with a large enough effect in the repeat runs; inconclusive means weak or mixed curves; inactive means no such curve, though single readings can be large; an effect the other way counts as inactive or inconclusive; further: potency means the concentration at half of the fitted maximal effect; nearly all actives have a fitted effect of over 45% in size); conditions: FXR-bla HEK293T viability, CellTiter-Glo luminescence, 16 h; viability change, negative = cytotoxic: at 62.6 µM (top of the series) unless noted
# Summary of the method: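 Same-well cytotoxicity check on FXR-UAS-bla HEK 293T cells: 5 h attachment, 16 h compound at 37 C, CellTiter-Glo luminescence read at room temperature after 30 min.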
# [12] = qHTS assay to identify small molecule antagonists of the farnesoid-X-receptor (FXR) signaling pathway - cell viability counter screen (AID 743221; active means well fitted cell-killing curve with a large enough effect in the repeat runs, not every such curve was filed as active; inconclusive means weak or mixed curves, or effect the other way; inactive means no such curve, though single readings can be large or run the other way; further: nearly all actives have a fitted effect of over 50% in size; further: potency means the concentration at half of the fitted maximal effect); conditions: FXR-bla HEK293T viability, CellTiter-Glo luminescence, 16 h; activity change, negative = cytotoxicity: at 62.6 µM (top of the series) unless noted
# Summary of the method: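 Compound effects on cell number were measured as CellTiter-Glo luminescence in HEK 293T cells expressing FXR-UAS-bla, after 16 h at 37 C with 50 uM CDCA (final).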
# [13] = molecular target: Bile acid receptor (Homo sapiens) (UniProt Q96RI1); test: qHTS assay to identify small molecule antagonists of the farnesoid-X-receptor (FXR) signaling pathway (AID 743217; active means well fitted inhibition curve with a large enough effect in the signal ratio in the repeat runs, not every such curve was filed as active; inconclusive means weak or mixed curves, or effect the other way; inactive means no such curve, though single readings can be large or run the other way; the % refers to the signal ratio; further: on the % scale 0 is the no-effect control and ±100 the full control effect); conditions: HEK293T FXR-UAS-bla, beta-lactamase ratio, CDCA-stimulated, 16 h; activity change, negative = inhibition: at 62.6 µM (top of the series) unless noted
# Sequence of UniProt Q96RI1 (Q96RI1 whole entry, looked up): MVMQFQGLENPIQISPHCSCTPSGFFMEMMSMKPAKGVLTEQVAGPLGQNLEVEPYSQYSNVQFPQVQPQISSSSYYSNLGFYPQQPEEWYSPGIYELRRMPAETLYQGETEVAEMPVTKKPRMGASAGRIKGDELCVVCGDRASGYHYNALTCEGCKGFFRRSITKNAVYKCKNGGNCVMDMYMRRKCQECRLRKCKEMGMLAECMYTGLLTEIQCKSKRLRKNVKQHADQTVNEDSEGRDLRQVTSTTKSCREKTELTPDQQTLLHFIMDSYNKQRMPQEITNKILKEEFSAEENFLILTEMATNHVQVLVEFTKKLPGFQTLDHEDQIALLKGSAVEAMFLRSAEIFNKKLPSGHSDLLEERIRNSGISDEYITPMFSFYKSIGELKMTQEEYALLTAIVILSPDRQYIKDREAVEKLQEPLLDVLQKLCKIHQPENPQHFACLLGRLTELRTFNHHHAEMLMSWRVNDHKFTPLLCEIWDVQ
# Summary of the method: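 Quantitative HTS, beta-lactamase reporter format: FXR-UAS-bla HEK 293T cells co-treated 16 h at 37 °C with compounds and 50 uM final chenodeoxycholic acid, then read by B/G FRET fluorescence.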
# [14] = qHTS assay for small molecule agonists of the antioxidant response element (ARE) signaling pathway - cell viability counter screen (AID 743203); further: nearly all actives have a fitted effect of over 55% in size; further: potency means the concentration at half of the fitted maximal effect
# Summary of the method: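 Parallel cytotoxicity read-out for the ARE-bla screen: HepG2 reporter cells, 16 hrs with compounds, then CellTiter-Glo luminescence.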
# [15] = molecular target: Bile acid receptor (Homo sapiens) (UniProt Q96RI1); test: qHTS assay to identify small molecule agonists of the farnesoid-X-receptor (FXR) signaling pathway (AID 743220; active means well fitted activation curve with a large enough effect in the signal ratio in the repeat runs, not every such curve was filed as active; inconclusive means weak or mixed curves, or effect the other way; the % refers to the signal ratio; further: on the % scale 0 is the no-effect control and ±100 the full control effect); conditions: HEK293T FXR-UAS-bla, beta-lactamase FRET ratio, 16 h; activation: at 62.6 µM (top of the series) unless noted
# Summary of the method: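 FXR-UAS-bla HEK 293T cells carrying a UAS-driven beta-lactamase reporter were plated for 5 h at 37C/5% CO2, then exposed to DMSO-dissolved Tox21 10K compounds for 16 h at 37C. A LiveBLAzer B/G FRET substrate was loaded for 2 h at room temperature before fluorescence reading.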
# [16] = qHTS assay to identify small molecule antagonists of the vitamin D receptor (VDR) signaling pathway - cell viability counter screen (AID 743225; active means well fitted curve in the direction sought with a large enough effect in the repeat runs; inconclusive means weak or mixed curves; inactive means no such curve, though single readings can be large; an effect the other way counts as inactive or inconclusive; further: nearly all actives have a fitted effect of over 50% in size; further: potency means the concentration at half of the fitted maximal effect); conditions: VDR-bla HEK293T viability, CellTiter-Glo luminescence, 16 h; viability change, negative = cytotoxic: at 61 µM (top of the series) unless noted
# Summary of the method: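 In this counter screen, VDR-bla HEK 293T cells receive test compound plus 3 nM final calcitriol for 16 h at 37C. Room-temperature steps of 2 h with the beta-lactamase substrate, then 30 min with CellTiter-Glo, precede the luminescence read.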
# Tags describe the fitted curve by direction and shape or compound fluorescence and quenching.
structure (smiles),measurement,setting,value
O=[N+]([O-])c1cc(Cl)c(Cl)c(Cl)c1,"ratio activity, negative = inhibition",[1],inconclusive: -12.1%
same,Potency,[2],"inconclusive: 60.6 µM [rising, partial curve]"
same,Potency,[3],"inconclusive: 0.0077 µM [rising, full curve, poor fit]"
same,Potency,[4],inactive
same,Potency,[5],inactive
same,Potency,[6],inactive
c1ccc2c(c1)OCC(C1=NCCN1)O2 (configuration not stated),Potency,[1],"inconclusive: 75 µM [rising, single point]"
same,Potency,[2],active: 13.3 µM
same,Potency,[7],inconclusive: 13.3 µM
same,Potency,[8],inconclusive: 33.5 µM [single point]
same,Potency,[9],"inconclusive: 33.5 µM [cytotoxic, single point]"
same,Potency,[10],active: 23.7 µM
same,Potency,[11],"inconclusive: 9.44 µM [cytotoxic, partial curve, poor fit]"
same,Potency,[12],"inconclusive: 29.8 µM [falling, single point]"
same,Potency,[4],active: 16.9 µM
same,Potency,[6],"inconclusive: 6.74 µM [rising, partial curve, poor fit]"
N[C@@H](Cc1ccc(N(CCCl)CCCl)cc1)C(=O)O,Potency,[1],"inconclusive: 29.6 µM [rising, partial curve, poor fit]"
same,Potency,[3],"inconclusive: 26.6 µM [cytotoxic, partial curve, poor fit]"
same,activation,[8],inconclusive: -2.94%
same,Potency,[9],"inconclusive: 5.27 µM [cytotoxic, single point] and inactive"
same,"activity change, negative = inhibition",[13],inconclusive: -24.6%
same,Potency,[6],inconclusive: 26.8 µM [cytotoxic]
Cc1cc2c3c(c1)C(c1ccccc1)=N[C@@H](NC(=O)c1ccncc1)C(=O)N3CC2,"ratio activity, negative = inhibition",[1],inconclusive: 0.339%
same,Potency,[8],inactive
same,Potency,[9],inactive
same,Potency,[13],inactive
same,Potency,[4],"inconclusive: 19.5 µM [fluorescent, partial curve, poor fit]"
same,Potency,[6],inactive
c1ccoc1,"ratio activity, negative = inhibition",[1],inconclusive: 3.07%
same,Potency,[14],inactive
same,Potency,[6],"inconclusive: 20.6 µM [rising, single point]"
BrCc1ccc(Br)cc1,Potency,[1],inactive
same,Potency,[2],inactive
same,Potency,[15],inactive
same,Potency,[4],inactive
same,Potency,[16],inactive
same,Potency,[6],inactive
O=[N+]([O-])c1ccc(Oc2ccc(C(F)(F)F)cc2[N+](=O)[O-])cc1,Potency,[1],"inconclusive: 38.9 µM [rising, partial curve]"
same,activation,[2],inconclusive: 21.4%
same,Potency,[10],inconclusive: 24.5 µM [partial curve]
same,Potency,[11],"inconclusive: 12.3 µM [rising, full curve, poor fit]"
same,"activity change, negative = inhibition",[4],inconclusive: 8.71%
same,Potency,[6],"inconclusive: 0.0012 µM [cytotoxic, partial curve, poor fit]"
c1coc(-c2nc3ccccc3[nH]2)c1,Potency,[1],inactive
same,Potency,[2],inactive
same,Potency,[7],inactive
same,Potency,[16],"inconclusive: 1.1 µM [cytotoxic, single point]"
same,Potency,[6],inactive
N#CCC#N,Potency,[1],inactive
same,Potency,[3],"inconclusive: 43.6 µM [cytotoxic, partial curve]"
same,Potency,[7],inconclusive: 13.3 µM
same,activation,[8],inconclusive: -4.82%
same,"activity change, negative = inhibition",[4],inconclusive: -0.532%
same,Potency,[6],inactive
CC1C(=O)C[C@]2(C(C)C)C[C@H]12 (some centres not stated),Potency,[1],inactive
same,Potency,[2],inactive
same,Potency,[12],inactive
same,Potency,[5],inactive
same,Potency,[6],"inconclusive: 47.4 µM [rising, partial curve, poor fit]"
CCN(CC)C(=O)SCc1ccc(Cl)cc1,"ratio activity, negative = inhibition",[1],inconclusive: -7.52%
same,Potency,[3],inactive
same,Potency,[13],inactive
same,"activity change, negative = inhibition",[4],inconclusive: 2.95% [at 78.8 µM]
same,Potency,[6],"inconclusive: 0.0012 µM [rising, full curve, poor fit]"
O=[N+]([O-])c1ccc(CCl)cc1,Potency,[1],"inconclusive: 0.0012 µM [inhibitor, full curve, poor fit]"
same,Potency,[2],"inconclusive: 42.6 µM [falling, partial curve, poor fit]"
same,Potency,[10],inactive
same,Potency,[6],inactive
COc1cc(OC)nc(Oc2cccc(Oc3nc(OC)cc(OC)n3)c2C(=O)O)n1,Potency,[1],inactive
same,Potency,[14],"inconclusive: 0.0043 µM [cytotoxic, full curve, poor fit]"
same,Potency,[7],inactive
same,Potency,[9],"inconclusive: 21.8 µM [cytotoxic, single point]"
same,"activity change, negative = inhibition",[13],inconclusive: -9.6%
same,Potency,[12],inactive
same,Potency,[5],"inconclusive: 21.8 µM [cytotoxic, single point]"
same,Potency,[16],"inconclusive: 21.8 µM [cytotoxic, single point]"
same,Potency,[6],inactive
